Test results taken from PubChem BioAssay AID1745845 (National Center for Advancing Translational Sciences (NCATS), 2022).
Values joined by “and” are separate entries in the source; they are usually repeats but may differ in a detail not shown here. Equal entries are not always repeated. The whole screen tested about 360,000 compounds, of which about 2,600 (0.72%) were called active. Inconclusive results, whose numbers are uncertain, are shown with a selection of clear calls. Calls come from the whole dose curve; as a rule, active = well fitted inhibition curve with a large enough effect; inconclusive = small, poorly fitted or top-dose-only effect; inactive = no such curve, though single readings can be large or run the other way. Where the call is inconclusive, the potency comes from a doubtful curve fit.

assay: Primary qHTS for Inhibitors of ATXN expression; conditions: HEK-293 ATXN2-luciferase reporter, luminescence, 24 h; activity change, negative = inhibition: at 57 µM (top of the series); note: nearly all actives have a fitted effect of over 55% in size
Summary of the method: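 ATXN2-luciferase reporter cells (luciferase flanked by upstream and downstream ATXN2 gene portions) were treated 24 h at 37 °C with compounds at up to 57 uM. SteadyGlo luminescence gave expression; GF-AFC fluorescence gave viability.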
% is set by controls: 0 for no effect and ±100 for the full control effect; potency is the fitted concentration of half-maximal effect; tags give direction and shape of the fitted curve.

Compound	Potency	activity change, negative = inhibition
CN(c1ccccc1)P(=O)(N(C)c1ccccc1)N(C)c1ccccc1	inconclusive: 13.4 µM [inhibitor, partial curve, poor fit]	–
O=C(COC(=O)c1ccc2c(c1)C(=O)N(c1cccc3ncccc13)C2=O)c1ccc(Cl)cc1	inconclusive: 12.6 µM [inhibitor, partial curve, poor fit]	–
O=C(N/N=C/c1cn(Cc2ccccc2)c2ccccc12)c1cccnc1	inconclusive: 14.1 µM [inhibitor, partial curve]	–
CCC(=O)N1CCN(c2ccc(NC(=O)c3ccc([N+](=O)[O-])o3)cc2Cl)CC1	inconclusive: 37.7 µM [inhibitor, single point]	–
O=C(c1ccc(C(F)(F)F)cc1)N1CCC(=O)N(C(COCc2ccccc2)Cc2ccccc2)CC1 (centres undefined)	inconclusive: 31.6 µM [inhibitor, single point]	–
COc1cc2oc(=O)cc(-c3ccc(-c4ccc(O)cc4)cc3)c2c(OC)c1OC	inconclusive: 31.6 µM [inhibitor, partial curve]	–
c1ccc2c(NC3CCCC3)nnc(NC3CCCC3)c2c1	inconclusive: 25.1 µM [inhibitor, partial curve, poor fit]	–
O=C(CN1C(=O)c2ccccc2C1=O)NCC(=O)OCC(=O)c1ccc(Cl)cc1	–	inactive: 13.2%
CCc1ccc(N2CCN(C(=O)N3CCOCC3)CC2)cc1	–	inactive: -11.4%
COc1ccccc1NC(=O)c1c(Nc2ccccc2F)sc(C(=O)Nc2cccc(Cl)c2)c1N	inconclusive: 39.8 µM [inhibitor, single point]	–
CCc1ccccc1N1C(=O)C2CC(C)=C(C)CC2C1=O (centres undefined)	–	inactive: 3.14%
CCOC(=O)c1[nH]c2ccc(F)cc2c1NC(=O)CN1CCN(C/C=C/c2ccccc2)CC1	inconclusive: 31.6 µM [inhibitor, single point]	–
O=C1NCCc2[nH]c(-c3ccncc3)cc21	active: 6.11 µM	–
Fc1ccc(-c2nc3ccc(Br)cn3c2Cc2cccc(F)c2)cc1	–	inactive: 43.6%
CCCC1CCC(c2ccc(C(=O)NN)cc2)CC1 (centres undefined)	inconclusive: 7.08 µM [inhibitor, partial curve]	–
CCc1ccc(-n2c(SCc3ccccc3F)nc3[nH]ncc3c2=O)cc1	inconclusive: 35.5 µM [inhibitor, single point]	–
CN(CCc1ccccc1)C(=O)c1ccc(NC(=O)Cc2cccc([N+](=O)[O-])c2)cc1	inconclusive: 39.8 µM [inhibitor, single point]	–
Cc1ccc(C(=O)N2CCN(c3ccc(NC(=O)c4ccc5c(c4)OCCO5)cc3)CC2)cc1	inconclusive: 3.98 µM [inhibitor, partial curve, poor fit]	–
COc1ccc(S(=O)(=O)Nc2cccnc2Nc2ccc(O)cc2)cc1	–	inactive: -14.9%
O=C(Nc1cc2cc[nH]c2cn1)c1ccccc1	inconclusive: 19.3 µM [inhibitor, single point]	–
COc1ccc(CCCNC(=O)C2Cc3c(-c4ccccc4)ccnc3O2)cc1 (centres undefined)	inconclusive: 31.6 µM [inhibitor, single point]	–
CCOc1ccc(OCc2cccc(C(=O)N(CC)CC)c2)cc1	inconclusive: 15 µM [inhibitor, partial curve, poor fit]	–
COCCNC(=O)CN(C(=O)CCC(=O)Nc1ccccn1)c1ccccc1F	inconclusive: 6.7 µM [inhibitor, partial curve, poor fit]	–

Compound	Potency	activity change, negative = inhibition
O=C(NCCc1csc(-c2ccccc2)n1)c1ccc(Br)o1	inconclusive: 26.7 µM [inhibitor, partial curve, poor fit]	–
Cc1cccc(-n2ncc3c(Nc4ccc(Oc5ccc(Cl)cc5)cc4)ncnc32)c1	inconclusive: 39.8 µM [inhibitor, single point]	–
OC(COc1ccc(Br)cc1)CN1CCN(c2ccccc2)CC1 (centres undefined)	–	inactive: -23.1%
Cc1ccc(C)n1-c1c(C(=O)NCCC(C)C)sc2ncccc12	–	inactive: -18.5%
CCOC(=O)C1CCN(C(=O)Cn2c(=O)cc(C)c3c(C)nn(C)c32)CC1	–	inactive: -22%
COc1ccc(C(=O)NCCn2cc(SCC(=O)Nc3cccc(C)c3)c3ccccc32)cc1	inconclusive: 39.8 µM [inhibitor, single point]	–
COc1cc(NC(=O)CSc2nnc(-c3ccncc3)n2C2CCCCC2)ccc1NC(=O)c1ccco1	inconclusive: 39.8 µM [inhibitor, single point]	–
CC1(C)NC(=O)N(CC(O)COc2cc3ccccc3cc2C(=O)N2CCCCC2)C1=O (centres undefined)	–	inactive: 3.96%
Cc1cc(C)nc(NC(=O)c2ccc(COc3ccccc3Cl)cc2)c1	inconclusive: 0.501 µM [inhibitor, full curve, poor fit]	–
Cn1c(=O)c2c(nc(CN3CCN(CCO)CC3)n2Cc2cccc3ccccc23)n(C)c1=O	inconclusive: 31.6 µM [inhibitor, partial curve, poor fit]	–
C=CCn1c(C)c(/C=C/c2cc[n+](C)cc2)c2ccccc21	inconclusive: 7.08 µM [inhibitor, single point]	–
CC(C)NCCCCOc1cccc(Br)c1	inconclusive: 4.23 µM [inhibitor, partial curve, poor fit]	–
COc1ccc(-n2c(C)cc(C(=O)CCl)c2C)cc1	active: 29.9 µM	–
Cc1cccc(N2CCN(C(=O)NCc3noc4ccccc34)CC2)c1C	–	inactive: 12.7%
CN(c1ccccc1)c1nc(N2CCCC2)nc(-n2ccnc2)n1	–	inactive: -0.452%
NC(Cc1ccc(C(F)(F)F)cc1)c1csc(Nc2ccc(S(N)(=O)=O)cc2)n1 (centres undefined)	inconclusive: 31.6 µM [inhibitor, single point]	–
O=C1NC[C@@H](c2ccccc2)OC(=O)[C@H](Cc2ccc(F)cc2)C/C=C\C[C@@H]1CC(=O)N(CCO)Cc1ccccc1	inconclusive: 39.8 µM [inhibitor, single point]	–
Cc1ccn2c(Nc3ccccc3C)c(-c3ccccn3)nc2c1	active: 5.01 µM and active: 3.98 µM	–
O=C1NC(Cc2ccc(O)cc2)c2nc3ccc(F)cc3c(=O)n2-c2cc3ccccc3cc21 (centres undefined)	inconclusive: 25.1 µM [inhibitor, single point]	–
CCCCC(=O)NC(c1ccc(OC)c(OC)c1)c1ccc2cccnc2c1O (centres undefined)	active: 5.01 µM	–
COc1ccccc1Cc1c(-c2ccc(OC)c(OC)c2)nc2c3ccccc3ccn12	inconclusive: 25.1 µM [inhibitor, partial curve, poor fit]	–
CCc1ccccc1NC(=O)c1nnn(-c2ccc(F)cc2)c1C	–	inactive: 20.5%
O=C(Nc1nnc(-c2ccc(F)cc2)o1)c1cc(Cl)sc1Cl	inconclusive: 15.8 µM [inhibitor, partial curve, poor fit]	–

Compound	Potency	activity change, negative = inhibition
Cc1cc(C)cc(-n2c(SCC(=O)N3CCCCC3)nc3c([nH]c4ccccc43)c2=O)c1	–	inactive: 21.8%
COc1ccc(NS(=O)(=O)c2c(F)cccc2F)cc1S(=O)(=O)N1CCOCC1	–	inactive: -15.7%
c1ccc2nc(-c3nc4ccccc4[nH]3)ccc2c1	inconclusive: 39.8 µM [inhibitor, single point]	–
CC(=O)N1CC2(CC(c3ccccc3F)=NO2)CN1c1ccc(Cl)cc1 (centres undefined)	–	inactive: 12.5%
Cc1cc(-c2n[nH]c(=S)n2/N=C/C(Br)=C/c2ccccc2)n[nH]1	inconclusive: 39.8 µM [inhibitor, single point]	–
CC(=O)N(C(C)=O)N1C(=O)/C(=C/c2ccc(Cl)cc2)SC1=S	inconclusive: 37.7 µM [inhibitor, single point]	–
O=C(NCc1ccco1)c1cc2nc(-c3ccc4c(c3)OCO4)cc(C(F)(F)F)n2n1	–	inactive: -13.4%
C=CCc1ccccc1OCCSc1nc(-c2ccc(C(C)(C)C)cc2)nc2cc(=O)[nH]n12	inconclusive: 39.8 µM [inhibitor, single point]	–
CCOC(=O)C1(C)CCCCCN1C(=O)c1ccc(OC)c(C(F)(F)F)c1 (centres undefined)	–	inactive: 1.1%
O=C1c2ccccc2C(=O)C12OC2c1ccc(Cl)cc1Cl (centres undefined)	inconclusive: 35.5 µM [inhibitor, single point]	–
CCN(Cc1ccccc1)C(=O)c1c(C)oc2ncn(C)c(=O)c12	–	inactive: 11.4%
CCOC(=O)c1ccc(NC(=O)c2cccc(S(=O)(=O)N3c4ccccc4CC3C)c2)s1 (centres undefined)	inconclusive: 31.6 µM [inhibitor, single point]	–
Cc1cc2ncn(CCOc3ccccc3)c2cc1C	–	inactive: 39.2%
CCc1nc2c(OCc3cccc(Cl)c3)cccn2c1N(C)C(=O)CC(C)C	inconclusive: 20 µM [inhibitor, single point]	–
COCCNC(=O)c1cnn(-c2ccc(C)cc2C)c1C1CCN(C(=O)OC(C)(C)C)CC1	–	inactive: -5.8%
O=C(NCc1ccc(F)cc1)c1ccc(CSCc2cccc(Cl)c2)o1	inconclusive: 35.5 µM [inhibitor, single point]	–
c1cncc(Nc2nc(-c3cccnc3)cs2)c1	–	inactive: 21.2%
COc1ccc(C(C(=O)NC2CCCCC2)N(Cc2cccs2)C(=O)Cc2c[nH]c3ccccc23)cc1 (centres undefined)	inconclusive: 25.1 µM [inhibitor, partial curve, poor fit]	–
Cc1ccc(NNC(=O)C(=O)N2CCCCC2)cc1	–	inactive: -20%
CN1CCN(C(=O)c2cccn(Cc3c(Cl)cccc3Cl)c2=O)CC1	–	inactive: 6.66%
O=S(=O)(/C(=C\c1ccc(C(F)(F)F)cc1)c1nc2ccccc2[nH]1)c1ccccc1	active: 5.01 µM	–
O=S(=O)(c1ccc2c(c1)OCCO2)N1CCC(n2nnc3cc(F)ccc32)CC1	inconclusive: 35.5 µM [inhibitor, partial curve, poor fit]	–
O=C(Nc1cccc(S(=O)(=O)N2CCCCC2)c1)c1c2c(nc3ccccc13)CCN(Cc1ccccc1)C2	–	inactive: 3.51%
